Measurements from the supplement of paper PMC10441789.
This is one part of the list. Antibody binding of pooled human sera (four to six donors per pool; dilution not stated) to peptides of the Trypanosoma cruzi antigen TSSA on microarrays. Quantile-normalised fluorescence in arbitrary units, mean of duplicate arrays; higher = more binding. No active / inactive call. The uninfected pools are read here as the healthy donors of the same country. The strongest signals lie near the top of the scale (about 60,000).

System: pooled sera of chronic Chagas disease patients, Argentina
Test: antibody binding signal (normalised fluorescence) (arbitrary fluorescence units); higher = stronger serum antibody binding to peptide
Protocol: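 Microarray of 15-residue peptides over residues 30-55 of Trypanosoma cruzi TSSAII, each with 1 to 10 substitutions at naturally variable positions, probed with one serum pool per country.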

For NKTAAGETPSQSGAS, which antibody binding signal is on record?
The antibody binding signal was 242.

Which antibody binding signal does the source give for TEKKPAAGGAPSQSG here?
The antibody binding signal was 1010.

KEKKPATGGTPSPSG was tested. Which antibody binding signal did it give?
Its antibody binding signal is 430.

For TDKKPAAGETPSQSG, which antibody binding signal is on record?
The antibody binding signal was 521.

How did the antibody binding signal turn out when PSGKDKKTATGETPS was run?
Its antibody binding signal is 2060.

How did the antibody binding signal turn out when GKDKKPATGETPSQP was run?
The antibody binding signal was 25200.

Which antibody binding signal does the source give for DNKTATGEAPSQSGA here?
The antibody binding signal was 14400.

With TDKKTAAGGTPSPPG as the sequence, how does the antibody binding signal read?
The antibody binding signal was 1570.

How did the antibody binding signal turn out when SGKEKKTAAGEAPSP was run?
Its antibody binding signal is 3340.

Which antibody binding signal does the source give for GKENKAATGGAPSPS here?
Its antibody binding signal is 2100.

With TSSTPPSGTEKKAAT as the sequence, how does the antibody binding signal read?
Its antibody binding signal is 37400.

How did the antibody binding signal turn out when TSSTPPSGTDNKAAA was run?
The antibody binding signal was 35100.

Which antibody binding signal does the source give for PPSGKENKAATGEAP here?
The antibody binding signal was 27200.

For GTDKKPAAGETPSQS, which antibody binding signal is on record?
Its antibody binding signal is 419.

Which antibody binding signal does the source give for SGKDNKAAAGETPSP here?
The antibody binding signal was 798.

For STPPSGTEKKPATGE, which antibody binding signal is on record?
Its antibody binding signal is 44100.

How did the antibody binding signal turn out when SGTDKKTATGGTPSP was run?
Its antibody binding signal is 1110.

How did the antibody binding signal turn out when GTDKKPATGETPSQS was run?
Its antibody binding signal is 37600.

GKDKKTATGEAPSPS was tested. Which antibody binding signal did it give?
Its antibody binding signal is 4950.

For PPSGTDKKPATGGTP, which antibody binding signal is on record?
Its antibody binding signal is 21900.

With KDNKPATGETPSPSG as the sequence, how does the antibody binding signal read?
Its antibody binding signal is 40300.

For ENKAATGGTPSPPGA, which antibody binding signal is on record?
The antibody binding signal was 418.

For SSTPPSGKDNKPATG, which antibody binding signal is on record?
Its antibody binding signal is 16300.

With KEKKAATGETPSPSG as the sequence, how does the antibody binding signal read?
The antibody binding signal was 556.

For PSGTENKTAAGGTPS, which antibody binding signal is on record?
Its antibody binding signal is 49600.

GKENKTAAGEAPSPP was tested. Which antibody binding signal did it give?
The antibody binding signal was 3260.

With GTEKKAATGEAPSQS as the sequence, how does the antibody binding signal read?
The antibody binding signal was 22900.

TDNKPATGGTPSPPG was tested. Which antibody binding signal did it give?
Its antibody binding signal is 926.

PSGKEKKPAAGGTPS was tested. Which antibody binding signal did it give?
Its antibody binding signal is 6860.

KENKAATGGTPSQSG was tested. Which antibody binding signal did it give?
Its antibody binding signal is 279.

How did the antibody binding signal turn out when EKKAAAGEAPSPPGA was run?
The antibody binding signal was 1260.

For DNKTAAGGTPSQPGA, which antibody binding signal is on record?
The antibody binding signal was 1410.

Which antibody binding signal does the source give for SGKDKKPAAGGTPSP here?
Its antibody binding signal is 607.

KDNKTAAGGTPSPSG was tested. Which antibody binding signal did it give?
The antibody binding signal was 833.

Which antibody binding signal does the source give for SGKENKPAAGGAPSQ here?
The antibody binding signal was 2840.

With SGTEKKPAAGEAPSP as the sequence, how does the antibody binding signal read?
Its antibody binding signal is 4350.

With PSGTENKPAAGEAPS as the sequence, how does the antibody binding signal read?
The antibody binding signal was 50300.

How did the antibody binding signal turn out when KKTAAGGAPSQPGAS was run?
Its antibody binding signal is 191.

With GKEKKTAAGGTPSPP as the sequence, how does the antibody binding signal read?
The antibody binding signal was 1370.

DKKPAAGGAPSPSGA was tested. Which antibody binding signal did it give?
The antibody binding signal was 899.
